Reference: paper doi:10.1101/2024.11.07.622398 (bioRxiv, 2024)

Biological target: T1, His-GST-tagged human UBA1 (human, UniProt P22314 1-1058)
T1 sequence (looked up): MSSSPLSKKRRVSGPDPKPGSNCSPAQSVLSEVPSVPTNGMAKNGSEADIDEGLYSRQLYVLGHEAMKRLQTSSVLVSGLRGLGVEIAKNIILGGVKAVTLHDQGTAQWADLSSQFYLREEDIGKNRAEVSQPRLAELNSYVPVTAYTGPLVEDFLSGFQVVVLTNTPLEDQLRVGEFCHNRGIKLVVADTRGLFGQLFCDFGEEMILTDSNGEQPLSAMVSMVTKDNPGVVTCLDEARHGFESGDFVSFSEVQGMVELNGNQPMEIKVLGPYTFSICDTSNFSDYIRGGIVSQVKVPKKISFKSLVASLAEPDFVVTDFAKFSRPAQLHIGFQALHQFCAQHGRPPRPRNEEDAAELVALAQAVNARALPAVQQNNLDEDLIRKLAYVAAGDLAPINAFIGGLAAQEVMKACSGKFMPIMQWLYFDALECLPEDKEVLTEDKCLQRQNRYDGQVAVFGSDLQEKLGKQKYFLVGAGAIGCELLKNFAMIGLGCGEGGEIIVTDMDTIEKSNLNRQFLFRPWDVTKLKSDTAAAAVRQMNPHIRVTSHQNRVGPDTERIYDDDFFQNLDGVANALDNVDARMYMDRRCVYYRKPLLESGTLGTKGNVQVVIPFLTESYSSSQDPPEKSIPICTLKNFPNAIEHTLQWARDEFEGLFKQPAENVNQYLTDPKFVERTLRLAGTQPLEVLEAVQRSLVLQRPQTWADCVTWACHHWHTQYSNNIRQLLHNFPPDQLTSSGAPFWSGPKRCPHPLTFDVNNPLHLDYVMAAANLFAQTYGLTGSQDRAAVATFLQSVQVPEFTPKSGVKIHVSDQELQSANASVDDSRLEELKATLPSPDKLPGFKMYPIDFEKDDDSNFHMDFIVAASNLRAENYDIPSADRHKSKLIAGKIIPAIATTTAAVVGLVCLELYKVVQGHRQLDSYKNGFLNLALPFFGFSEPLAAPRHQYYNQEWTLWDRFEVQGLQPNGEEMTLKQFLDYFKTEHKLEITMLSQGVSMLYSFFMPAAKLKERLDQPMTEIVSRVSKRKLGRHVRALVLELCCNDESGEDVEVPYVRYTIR
Assay: BLI

Kd: 16.8 µM
B1: human UBE2L3(C86A) (enzyme)
chain: not shown
